Reference: the RNAGym collection of RNA variant scans (doi:10.1073/pnas.2313332121)
Variants at the background level are over-represented here.

B1: TPR 5TU (parent)
chain: GGAUCUUCUCGAUCUAACAAAAAAGACAAAUCUGCCACAAAGCUUGAGAGCAUCUUCGGAUGCAGAGGCGGCAGCCUUCGGUGGCGCGAUAGCGCCAACGUUCUCAACUAUGACACGCAAAACGCGUGCUCCGUUGAAUGGAGUUUAUCAUG

Variants of: B1
Assay: polymerase ribozyme fitness, log enrichment relative to wild type (log ratio); higher = more active; in vitro selection for triplet polymerase activity
Outline: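 Fitness measures genotype enrichment against wild-type enrichment on a logarithmic scale, with inverse-variance-weighted averaging of replicates. The logarithm is base 2, and genotypes were kept only with ≥10 input reads and ≥1 read per output in Illumina sequencing. The sequenced libraries came from one triplicate in vitro selection round, including frozen incubation at −7 °C, of PCR-built, transcribed mutant libraries of each subunit of a heterodimeric triplet polymerase ribozyme.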

Q: Which “polymerase ribozyme fitness (log ratio)” value does the source give for C43A A66G U77A A97G U146A here?
A: ≤ -4.2

Q: With C43A A66U A106U C123A as the variant, how does the “polymerase ribozyme fitness (log ratio)” value read?
A: ≤ -4.2

Q: For C43A C54U G86A A98U, which “polymerase ribozyme fitness (log ratio)” value is on record?
A: ≤ -4.2

Q: With C43A C57G A60C U61A C69U C93U as the variant, how does the “polymerase ribozyme fitness (log ratio)” value read?
A: ≤ -4.2

Q: For C43A C57G U78G C96A A113G, which “polymerase ribozyme fitness (log ratio)” value is on record?
A: ≤ -4.2

Q: With C43A C57U C75U U77C C87A C93A C108A C149G as the variant, how does the “polymerase ribozyme fitness (log ratio)” value read?
A: ≤ -4.2

Q: Which “polymerase ribozyme fitness (log ratio)” value does the source give for C43A C57U C76G C85A G86A G140A here?
A: ≤ -4.2

Q: Which “polymerase ribozyme fitness (log ratio)” value does the source give for C43A C76A G83U A121G G133U here?
A: ≤ -4.2

Q: With C43A C85G A89G A98U G133A as the variant, how does the “polymerase ribozyme fitness (log ratio)” value read?
A: ≤ -4.2

Q: For C43A C93U C103A C105A, which “polymerase ribozyme fitness (log ratio)” value is on record?
A: ≤ -4.2

Q: With C43A C95G C118G U127G C132U as the variant, how does the “polymerase ribozyme fitness (log ratio)” value read?
A: ≤ -4.2

Q: Which “polymerase ribozyme fitness (log ratio)” value does the source give for C43A C118G C123G here?
A: ≤ -4.2

Q: Which “polymerase ribozyme fitness (log ratio)” value does the source give for C43A G48U A60G G83C C87U G126U A138C here?
A: ≤ -4.2

Q: For C43A G50A C85G, which “polymerase ribozyme fitness (log ratio)” value is on record?
A: ≤ -4.2

Q: For C43A G58C C76A U102C G141A, which “polymerase ribozyme fitness (log ratio)” value is on record?
A: ≤ -4.2

Q: For C43A G62A G124C, which “polymerase ribozyme fitness (log ratio)” value is on record?
A: ≤ -4.2

Q: Which “polymerase ribozyme fitness (log ratio)” value does the source give for C43A G81A C96A U145A here?
A: ≤ -4.2

Q: Which “polymerase ribozyme fitness (log ratio)” value does the source give for C43A G83U A113C G143A here?
A: ≤ -4.2

Q: Which “polymerase ribozyme fitness (log ratio)” value does the source give for C43A G92A A98U A137C here?
A: ≤ -4.2

Q: With C43A G141C as the variant, how does the “polymerase ribozyme fitness (log ratio)” value read?
A: ≤ -4.2

Q: For C43A U44A C118U, which “polymerase ribozyme fitness (log ratio)” value is on record?
A: -4.17

Q: With C43A U44G A64C C118G C131G A137G G152U as the variant, how does the “polymerase ribozyme fitness (log ratio)” value read?
A: ≤ -4.2

Q: Which “polymerase ribozyme fitness (log ratio)” value does the source give for C43A U45A G74C C85G C108U here?
A: ≤ -4.2

Q: With C43A U45C G80C U82G G86U C96G G100U as the variant, how does the “polymerase ribozyme fitness (log ratio)” value read?
A: ≤ -4.2

Q: For C43A U55A C57U C87G, which “polymerase ribozyme fitness (log ratio)” value is on record?
A: ≤ -4.2

Q: Which “polymerase ribozyme fitness (log ratio)” value does the source give for C43A U55C G58C C93G C95U U130C C132A here?
A: ≤ -4.2

Q: For C43A U61A G65C C87G G124A G128C A147U, which “polymerase ribozyme fitness (log ratio)” value is on record?
A: ≤ -4.2

Q: Which “polymerase ribozyme fitness (log ratio)” value does the source give for C43A U77C C87A G88U A106U U151A here?
A: ≤ -4.2

Q: For C43G A52C C85U C116U G152U, which “polymerase ribozyme fitness (log ratio)” value is on record?
A: ≤ -4.2

Q: With C43G A60C C131U A138G as the variant, how does the “polymerase ribozyme fitness (log ratio)” value read?
A: ≤ -4.2

Q: Which “polymerase ribozyme fitness (log ratio)” value does the source give for C43G C57A G59C C72A C79A A138G U145A here?
A: ≤ -4.2

Q: With C43G G46A G68A A107U G126A C129A C132U as the variant, how does the “polymerase ribozyme fitness (log ratio)” value read?
A: ≤ -4.2

Q: With C43G G50C G62U C75U G84A C93U U151C as the variant, how does the “polymerase ribozyme fitness (log ratio)” value read?
A: ≤ -4.2

Q: For C43G G50C U82A C116A, which “polymerase ribozyme fitness (log ratio)” value is on record?
A: ≤ -4.2

Q: For C43G G58C U61C U111G, which “polymerase ribozyme fitness (log ratio)” value is on record?
A: ≤ -4.2

Q: For C43G G58C U78A G133U, which “polymerase ribozyme fitness (log ratio)” value is on record?
A: ≤ -4.2

Q: For C43G G59C A60G G74U U148C, which “polymerase ribozyme fitness (log ratio)” value is on record?
A: ≤ -4.2

Q: For C43G G68C G80C C85G U127G, which “polymerase ribozyme fitness (log ratio)” value is on record?
A: ≤ -4.2

Q: For C43G G74A A91U G92U A98C U109G C132U, which “polymerase ribozyme fitness (log ratio)” value is on record?
A: ≤ -4.2

Q: With C43G G81U A91U G124C U135G as the variant, how does the “polymerase ribozyme fitness (log ratio)” value read?
A: ≤ -4.2

Q: For C43G G83U G88U G133A, which “polymerase ribozyme fitness (log ratio)” value is on record?
A: ≤ -4.2

Q: For C43G G86U U139C, which “polymerase ribozyme fitness (log ratio)” value is on record?
A: -4.11

Q: For C43G G92U U104G A119G, which “polymerase ribozyme fitness (log ratio)” value is on record?
A: ≤ -4.2

Q: Which “polymerase ribozyme fitness (log ratio)” value does the source give for C43G U44A U45G G58C A66U C93U A106G C125U U134C here?
A: ≤ -4.2

Q: Which “polymerase ribozyme fitness (log ratio)” value does the source give for C43G U44G C96U G126A U148G here?
A: ≤ -4.2

Q: With C43G U45A U55A C63U G84C C85G C93G G124C G133C as the variant, how does the “polymerase ribozyme fitness (log ratio)” value read?
A: ≤ -4.2

Q: With C43G U55A G68C A91G C114U C129U G133U as the variant, how does the “polymerase ribozyme fitness (log ratio)” value read?
A: ≤ -4.2

Q: For C43U A47C C79G, which “polymerase ribozyme fitness (log ratio)” value is on record?
A: ≤ -4.2

Q: With C43U A47G C96U C116U as the variant, how does the “polymerase ribozyme fitness (log ratio)” value read?
A: ≤ -4.2

Q: Which “polymerase ribozyme fitness (log ratio)” value does the source give for C43U A49C C54U C108G C118A here?
A: ≤ -4.2

Q: For C43U A49C C96A A107C A113U, which “polymerase ribozyme fitness (log ratio)” value is on record?
A: ≤ -4.2

Q: For C43U A49G C51G U55A A91G A113U A150C, which “polymerase ribozyme fitness (log ratio)” value is on record?
A: ≤ -4.2

Q: Which “polymerase ribozyme fitness (log ratio)” value does the source give for C43U A52U C85G G133U here?
A: ≤ -4.2

Q: Which “polymerase ribozyme fitness (log ratio)” value does the source give for C43U A60C G80C C96G G140U G143A here?
A: ≤ -4.2

Q: For C43U A66G C105A, which “polymerase ribozyme fitness (log ratio)” value is on record?
A: ≤ -4.2

Q: With C43U A66U C93U C105U G141A as the variant, how does the “polymerase ribozyme fitness (log ratio)” value read?
A: ≤ -4.2

Q: Which “polymerase ribozyme fitness (log ratio)” value does the source give for C43U A66U C93U C105U G141C here?
A: ≤ -4.2

Q: Which “polymerase ribozyme fitness (log ratio)” value does the source give for C43U A73G here?
A: ≤ -4.2

Q: With C43U A73U G94A U104A U111G U139A as the variant, how does the “polymerase ribozyme fitness (log ratio)” value read?
A: ≤ -4.2

Q: For C43U A115G, which “polymerase ribozyme fitness (log ratio)” value is on record?
A: ≤ -4.2

Q: Which “polymerase ribozyme fitness (log ratio)” value does the source give for C43U A142U U148A here?
A: ≤ -4.2

Q: Which “polymerase ribozyme fitness (log ratio)” value does the source give for C43U C51G A66C U78A A98G G141U here?
A: ≤ -4.2

Q: With C43U C54U G71C G126U as the variant, how does the “polymerase ribozyme fitness (log ratio)” value read?
A: ≤ -4.2

Q: For C43U C54U G71U C79A A120C, which “polymerase ribozyme fitness (log ratio)” value is on record?
A: ≤ -4.2

Q: With C43U C63U G70C U77A G84A as the variant, how does the “polymerase ribozyme fitness (log ratio)” value read?
A: ≤ -4.2

Q: Which “polymerase ribozyme fitness (log ratio)” value does the source give for C43U C75G G84U here?
A: ≤ -4.2

Q: Which “polymerase ribozyme fitness (log ratio)” value does the source give for C43U C79A C108G A138G G140A here?
A: ≤ -4.2

Q: For C43U C85A C87U G94C, which “polymerase ribozyme fitness (log ratio)” value is on record?
A: ≤ -4.2

Q: Which “polymerase ribozyme fitness (log ratio)” value does the source give for C43U C93U here?
A: ≤ -4.2

Q: With C43U C95U as the variant, how does the “polymerase ribozyme fitness (log ratio)” value read?
A: ≤ -4.2

Q: With C43U C103G as the variant, how does the “polymerase ribozyme fitness (log ratio)” value read?
A: ≤ -4.2

Q: For C43U G48A C96U U111A, which “polymerase ribozyme fitness (log ratio)” value is on record?
A: ≤ -4.2

Q: With C43U G48C U53G U55G U102A C118A A119C A150C G152C as the variant, how does the “polymerase ribozyme fitness (log ratio)” value read?
A: ≤ -4.2

Q: With C43U G50C as the variant, how does the “polymerase ribozyme fitness (log ratio)” value read?
A: ≤ -4.2

Q: With C43U G50U C87U C116G U144G as the variant, how does the “polymerase ribozyme fitness (log ratio)” value read?
A: ≤ -4.2

Q: With C43U G58A U82A C96A U104G A110C G133A U139A G152U as the variant, how does the “polymerase ribozyme fitness (log ratio)” value read?
A: ≤ -4.2

Q: For C43U G59A C85A A107C G126C, which “polymerase ribozyme fitness (log ratio)” value is on record?
A: ≤ -4.2

Q: With C43U G59C C95G A97U C116G as the variant, how does the “polymerase ribozyme fitness (log ratio)” value read?
A: ≤ -4.2

Q: For C43U G59C C99U G141U, which “polymerase ribozyme fitness (log ratio)” value is on record?
A: ≤ -4.2

Q: Which “polymerase ribozyme fitness (log ratio)” value does the source give for C43U G62A G86U G126A G133A U151A here?
A: ≤ -4.2

Q: For C43U G62C U102A C105U U135C, which “polymerase ribozyme fitness (log ratio)” value is on record?
A: ≤ -4.2

Q: Which “polymerase ribozyme fitness (log ratio)” value does the source give for C43U G70A C87A C118G A138G G143C here?
A: ≤ -4.2

Q: Which “polymerase ribozyme fitness (log ratio)” value does the source give for C43U G74U C85G G136A G140C here?
A: ≤ -4.2
